These results are taken from publication PMC12136788.

The list shows a part of the results.

B1: chr1:6224442:6224573:-|3pUTR|ENSG00000116237|msi1_unk|FALSE|overlapping (ssRNA)
RNA: GGGAGUUCUACAGUCCGACGAUCCUAUACAAUUUUAAAAAUACUUCCUCAUAGGAUGCUUUGGCCCUUCAUCUAUUUAAUCAUAGCUACAUACCUAUUUUUUAUAAGUAGCAGUACACAUUCAAAGGGGUAUUCCUAGCUCAACAACAGAGGAUUGAGCAUCA
B2: chr9:116187394:116187495:+|CDS|ENSG00000182752|msi1|FALSE|unique (ssRNA)
RNA: GGGAGUUCUACAGUCCGACGAUCUGGGGAACAAGUGGGUGGCAUAUUCAGCCCACUGACCCAGAAGUGCAAAGUGCUCAUGUUAGGGGGCAGUGCCCUGAAUCACAACUACCGGGGCUACAUCGAGCACUUCAGUCUGUGGAACAACAGAGGAUUGAGCAUCA
B3: chr13:19772241:19772543:-|CDS|ENSG00000121390|control|control|control (ssRNA)
RNA: GGGAGUUCUACAGUCCGACGAUCAGUAGAGAAAGCUGUUGUGGUUGUGGAUGAUCGCGGUAGAGCUACAGGAAAAGGUUUUGUAGAGUUUGCAGCAAAACCUCCUGCACGAAAGGCUCUGGAAAGAUGUGGUGAUGGGGCAUUCAACAGAGGAUUGAGCAUCA
B4: chr11:2944997:2945113:-|3pUTR|ENSG00000205531|unk|FALSE|unique (ssRNA)
RNA: GGGAGUUCUACAGUCCGACGAUCCUGUGUAGAGUAGGGCCCUGUUCUCCUUAGGAUGUUGCUUCUUGAUUUUUUUUUUUUUUUAGGGGUGGGUCAGGGUUGUGACACACCAGCCCAGGUGAGAGCUGCUGCGGGUCACCUCAUCAACAGAGGAUUGAGCAUCA
B5: ENSG00000070961:be:win_6451|3pUTR|ENSG00000070961|bound_else_gene|NA|bound_elsewhere_windowed (ssRNA)
RNA: GGGAGUUCUACAGUCCGACGAUCUAAGCCAACUGAGAUACCGUGAUGGUGUUGAUUUCUUUCAAUGAUGCUUACCAUCUAUUUUAGCCACUGAGCCUUUUAUUAUUUGUCUAUUUGUAAAGUUUAUUUGUCUUAACUCAUUUACAACAGAGGAUUGAGCAUCA
B6: chrX:74591538:74591767:-|CDS|ENSG00000131263|unk|FALSE|bound_elsewhere (ssRNA)
RNA: GGGAGUUCUACAGUCCGACGAUCUUGCCCUUCCUUAGCCUGGCUCAGUUUUUCCUCUUAAAUGAGGAUGAUGAUGACCAACCUAGAGGACUCACCAAAGAACAGAUUGACAACUUGGCAAUGAGAAGUUUUGGUGAAAAUGAUCAACAGAGGAUUGAGCAUCA
B7: chr2:73730642:73730743:-|CDS|ENSG00000144034|unk|FALSE|unique (ssRNA)
RNA: GGGAGUUCUACAGUCCGACGAUCUUCAGACGUAGGAAACAAUGGUUAAUGAUCUUGUGUUUUUUUUUUCAUUUUUUUUCUCUUAGAUUUCAGAGGCUUUGAAAAAAUUUGGUAUCUCAGCAAAUGACACUUCAAUUCUAAUUGCAACAGAGGAUUGAGCAUCA
B8: chr19:39539560:39539696:-|CDS|ENSG00000176396|unk|total|mutant (ssRNA)
RNA: GGGAGUUCUACAGUCCGACGAUCCGGGAACGGAGGCCUGGCUGCGUUGCCCUAUCUCCGUCUCCGCCACCCACUCCGCGUUUCCGGCAUCAAUUACCAGCAGUUUCUCCGCCACUAUCUGGAAAAUUACCCGAUUGCUCCCGGCAACAGAGGAUUGAGCAUCA
B9: chr1:150647640:150647741:-|3pUTR|ENSG00000143457|unk|total|mutant (ssRNA)
RNA: GGGAGUUCUACAGUCCGACGAUCAGAUUCAAUUACCUGGAUGUCAAAGUCCCCGAGCCAGAAAUAUAUUCUCUCAUCCCUCUCCGCAUUCUCUUGCUCCCUCAUUCACCCGGGCAAAUGUCUAAAUGAAGAAAAGUCUCUCUCCAACAGAGGAUUGAGCAUCA
B10: chr14:49622334:49622435:+|CDS|ENSG00000168282|unk|total|mutant (ssRNA)
RNA: GGGAGUUCUACAGUCCGACGAUCCAAUACUUGACUGUAUCUUGUCUUCCAAAAUUCUGGAAAGUGCUGGUUCCUCAAAUUCCCCGGAUCUUUCAUGCUGGAGACUGUGGUAUGCAUCACAAGAAAACCUGCCGACCAUCCACUCAACAGAGGAUUGAGCAUCA
B11: chrX:71240429:71240530:-|3pUTR|ENSG00000147130|msi1|total|mutant (ssRNA)
RNA: GGGAGUUCUACAGUCCGACGAUCGGCUUUGGGUUUCCUGACCCAUCCCGCACCGGCCGAGCCUCUUGUUCCCCGGCAUGACCCCGGGAAAAACCCAGCUGCCUUCUCUGCCCUGUGCCCACUCCCUUCUCUACUCUUCCCCAGCAACAGAGGAUUGAGCAUCA
B12: ENSG00000044524:stop:overlap|stop_codon|ENSG00000044524|stop_codon|NA|stop_codon (ssRNA)
RNA: GGGAGUUCUACAGUCCGACGAUCACAGCCGCAAGUUUGAGUUUGAAACUAGUCCAGACUGUAUGUAUUAUUUCAAUGCAGUCUAGAGGAGGGGGCAGGGAUCUUGCAAAAGAUGUCUGAUCGUUUAUUCUCACUGUUUCUAAGCAACAGAGGAUUGAGCAUCA
B13: chr13:113500007:113500108:+|CDS|ENSG00000150403|unk|total|mutant (ssRNA)
RNA: GGGAGUUCUACAGUCCGACGAUCGAAGAGGCCAAUUCUAAGCAAAAUAUAACAAAACGAGAAGUGGAGGAUGACUUGGGUCUCCGCAUGCUGAUUGACUCCCAGAACAACCAGUAUAUUUUGACCAAGCCCAGAGAUUCAACCCAACAGAGGAUUGAGCAUCA
B14: chr2:167954955:167954998:-|3pUTR|ENSG00000198648|msi1_unk|total|mutant (ssRNA)
RNA: GGGAGUUCUACAGUCCGACGAUCGUUGUAUUCCGAAAUUAAUAUACUUAUAAAAUUAAGAUUUAUCCGCCAAACUUGAAUUCCCGUUUUAAAACUGACUGUGAAUUUUAUUUUUCAUAUAUUUAUGCAUUACACACCUCCGCUCAACAGAGGAUUGAGCAUCA
B15: chr10:75150949:75151073:+|CDS|ENSG00000156671|unk|total|mutant (ssRNA)
RNA: GGGAGUUCUACAGUCCGACGAUCUGUUCGAAGAUUGGACCCAGAAUACUGGAAGACUAUACUGAGUUGUAUAUAUGUUUUUACCGUAUUUGGAUUUACAUCUUUCAUUAUGGUUACCGUCCAUGAGCGAGUGCCUGACAUGCACAACAGAGGAUUGAGCAUCA
B16: chr14:96341565:96341677:-|CDS|ENSG00000066739|unk|FALSE|unique (ssRNA)
RNA: GGGAGUUCUACAGUCCGACGAUCCUGGAACCCCAAAAUUAUUUAUGAGCCACACCCACAGCUAACUAGAAAUUUACCAGAGAUAGCACCUUCUGACCCAGUGCAGAUUGGACGGUUAAUUGGUAGGUUGGAGUUGAGUCUCACCAACAGAGGAUUGAGCAUCA
B17: chr16:20924479:20924582:+|3pUTR|ENSG00000102897|unk|FALSE|unique (ssRNA)
RNA: GGGAGUUCUACAGUCCGACGAUCCUACUAUAAAACUAUGUACCACUCUCAGAAUAUUCUUAGGCUUUUUUUUUUUCAAGUUAUAGAUUUGCUUAAAGUGAGGUUUUUUGGUGUGUGCUUUUUUGUUGUCUUUUGACCCUUCCACAACAGAGGAUUGAGCAUCA
B18: chr9:34610807:34611296:-|CDS|ENSG00000164967|control|control|control (ssRNA)
RNA: GGGAGUUCUACAGUCCGACGAUCCAAGCUACGUUUCCUUCAGACUGAGGACAGCUGGGUCCCAGCCUCACCUGACACAGGGCUAGACCCCCUCACAGUGCGCCGCCAUGUGCCUGCAGUGUGGGUGCUGCUCAGCCGGGACCCCAACAGAGGAUUGAGCAUCA
B19: ENSG00000141127:stop:overlap|stop_codon|ENSG00000141127|stop_codon|NA|stop_codon (ssRNA)
RNA: GGGAGUUCUACAGUCCGACGAUCAUUCAUCAUGUAUGGAGCUAUCAAAGAAAAUUGCAGACUUUUUCCCCCUUUCUCUUCUCUAGGCGGCUAGGGGUGGAGAUGGGCAAAGUGCAGGUUUACCAGGAACCUAACAGAGAAACACAACAGAGGAUUGAGCAUCA
B20: chr13:77097425:77097526:-|CDS|ENSG00000005810|msi1|total|mutant (ssRNA)
RNA: GGGAGUUCUACAGUCCGACGAUCAGAAAAGGCAGAAGUCCGGCCCAGGGGUAAUUUGUUUGGAGAGAUGGCCCAGCUGGCAGCCGGAGGACCAGAGAAAGAUACCAUCUGUGAACUGUGUGGGGAGUCACAUCCAUACCCGGUCAACAGAGGAUUGAGCAUCA
B21: chr3:98797553:98797658:-|3pUTR|ENSG00000057019|msi1|total|mutant (ssRNA)
RNA: GGGAGUUCUACAGUCCGACGAUCAUUUCAUUCAUUGAAGAAUCAAUACAUAUUUUGUUUCAAAAUGUUUGAAACAAAAGACACCGAUGGCCGACUUUUAUUAAAACAUAUAUGGAUGUGGAAAGCACAUAUAUUAAUGCAGUCCAACAGAGGAUUGAGCAUCA
B22: chr14:77132432:77132533:-|3pUTR|ENSG00000177108|unk|total|mutant (ssRNA)
RNA: GGGAGUUCUACAGUCCGACGAUCUGUGAUUGCUGGACCCAGAGGCAAGAUCUGCAGAGAUGCCUGUGAGAUAUUUGCUUUCCCCGAGGGGAGUGUGGGCAUGGGAGGGGUCUGAAAAUCAGGACCCAACCCAGCCACUGAAGACAACAGAGGAUUGAGCAUCA

The experiment has as its target T1, UNK ZnF1-6 (called full-length) (human, UniProt Q9C0B0 30-357).
T1 sequence: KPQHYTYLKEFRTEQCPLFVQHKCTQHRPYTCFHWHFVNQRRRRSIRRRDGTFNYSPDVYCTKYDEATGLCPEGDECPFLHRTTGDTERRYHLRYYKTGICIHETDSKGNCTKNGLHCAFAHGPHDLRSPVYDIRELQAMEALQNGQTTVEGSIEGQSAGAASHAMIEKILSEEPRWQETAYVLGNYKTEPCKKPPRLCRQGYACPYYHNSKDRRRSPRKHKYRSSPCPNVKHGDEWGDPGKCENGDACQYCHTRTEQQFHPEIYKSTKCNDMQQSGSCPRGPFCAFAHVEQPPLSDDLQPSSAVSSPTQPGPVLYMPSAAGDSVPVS
Briefly: nsRBNS (natural sequence RNA bind-n-seq); RBNS binding buffer (assumed for nsRBNS): 25 mM Tris pH 7.5, 150 mM KCl, 3 mM MgCl2, 0.01% Triton X-100, 500 ug/ml BSA, 20 U/ml SUPERase-In, 4 C; UNK is unkempt and MSI1 is Musashi-1; names of the RNAs are library labels; protein concentration not given here; high values mean tight binding.
The molecule B1 returned a binding signal of 2.06 enrichment R. Turning to B2, the binding signal was 0.696 enrichment R. In turn, B3 displayed a binding signal of 0.874 enrichment R. The value for B4 was 22 enrichment R. Then B5, with 3.38 enrichment R. The value for B6 was 0.364 enrichment R. For the molecule B7, the binding signal came out at 1.44 enrichment R. The value for B8 was 0.56 enrichment R; that for B9 was 0.715 enrichment R; that for B10 was 0.459 enrichment R. The value for B11 was 0.999 enrichment R; that for B12 was 1.11 enrichment R. Then B13, with 0.588 enrichment R; and B14, with 3.43 enrichment R. Take B15: the binding signal stood at 0.336 enrichment R. B16 returned a binding signal of 2.44 enrichment R.

B17 displayed a binding signal of 8.67 enrichment R. B18 displayed a binding signal of 0.668 enrichment R.

As for B19, the binding signal was determined as 0.392 enrichment R.

As to B20, the binding signal stood at 0.764 enrichment R.

Regarding B21, the binding signal amounted to 0.53 enrichment R.

In the case of B22, the binding signal came to 0.528 enrichment R.
